For 28 compounds, activity change, negative = inhibition results are on record in PubChem BioAssay AID1745853 (National Center for Advancing Translational Sciences (NCATS), 2022).

What all share (experiment): Primary Screen for Target Class Profiling of Small Molecule Inhibitors of Methyltransferases
The target in test [1] is Glycine N-methyltransferase (Homo sapiens) (UniProt Q14749). The following applies: purified enzyme, MTase-Glo SAH luminescence; measured here: GNMT inhibition; at 40 µM; stronger effect = lower value. The method in brief:
(§1)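 Each enzyme was assayed with SAM and its substrate. SAH formation detected by MTase-Glo luminescence; single-point 40 uM screen[…].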

The target of test [2] is Guanidinoacetate N-methyltransferase (Homo sapiens) (UniProt Q14353). The following applies: purified enzyme, MTase-Glo SAH luminescence; measured here: GAMT inhibition; at 40 µM; stronger effect = lower value. The method in brief:
as §1

Test [3] concerns the target Histamine N-methyltransferase (Homo sapiens) (UniProt P50135). The following applies: purified enzyme, MTase-Glo SAH luminescence; measured here: HNMT inhibition; at 40 µM; stronger effect = lower value. The method, boiled down:
as §1

Test [4] concerns the target Nicotinamide N-methyltransferase (Homo sapiens) (UniProt P40261). The following applies: purified enzyme, MTase-Glo SAH luminescence; measured here: NNMT inhibition; at 40 µM; stronger effect = lower value. The method in brief: as §1
The target of test [5] is Phenylethanolamine N-methyltransferase (Homo sapiens) (UniProt P11086). The following applies: purified enzyme, MTase-Glo SAH luminescence; measured here: PNMT inhibition; at 40 µM; stronger effect = lower value. The method in brief:
as §1

Where “and” joins values, the source holds several entries; their conditions need not be identical. Identical values can stand only once. The list shows a part of the results. Shown are side measurements of this screen, not its main read-out; they come without a call.
% is scaled to controls: 0 for no effect and ±100 for the full control effect.

`N=c1ccn2c(n1)O[C@H]1[C@H](O)[C@@H](CO)O[C@H]12`: the activity change, negative = inhibition is -6.51% in test [1]; 1.73% in test [2]; -3.58% in test [3]; -7.34% in test [4]; 1.9% in test [5].

`Cc1ccc(S(=O)(=O)c2nnn3c2nc(N2CCN(C)CC2)c2cc(Cl)ccc23)cc1C`: the activity change, negative = inhibition in test [1] was -19%; in test [2], -2.35%; in test [3], -8.34%; in test [4], -12.9%; in test [5] it was -7.95%.

On to `CC(=O)N[C@@H]1CN(S(=O)(=O)N2CCOCC2)C[C@H]1c1ccc(C)o1`, for which the activity change, negative = inhibition in test [1] is -4.8%; in test [2], -2.25%; in test [3], -0.922%; in test [4], -0.285%; in test [5], -0.019%.

Regarding `COCCn1ncc(N2CCCC(CC(=O)O)C2)cc1=O` (stereo not given), the activity change, negative = inhibition was 2.51% in test [1]; 4.93% in test [2]; 3.99% in test [3]; -0.696% in test [4]; 15.1% in test [5].

Regarding `CCCCNC(=O)c1cc2n(n1)CC(C)(C(=O)NCc1ccc(C)cc1)N(C)C2=O` (stereo not given), the activity change, negative = inhibition in test [1] was 8.69%; in test [2], 1.61%; in test [3] it was 10.1%; in test [4], 7.96%; in test [5] it was 7.28%.

`Cn1cc(Nc2cnccc2C(=O)O)c2cccnc21`: the activity change, negative = inhibition in test [1] is 5.27%; in test [2], 7.58%; in test [3], 8.28%; in test [4], -5.71%; in test [5], 2.15%.

Turning to `C[C@]1(O)CCN(C(=O)c2cc(-c3ccsc3)n[nH]2)C[C@@H]1O`, the activity change, negative = inhibition in test [1] is -5.69%; in test [2], -3.11%; in test [3], -0.486%; in test [4], -6.86%; in test [5], -1.48%.

`CNC(=O)c1ccc2cc([C@@]3(O)CCn4cncc43)ccc2c1`: the activity change, negative = inhibition is 3.24% in test [1]; 9.09% in test [2]; 10.5% in test [3]; -7.02% in test [4]; 5.75% in test [5].

As for `Cc1ccccc1CCN1C(=O)c2ccc(-c3ccco3)n2CC1(C)C(=O)NC1CCCCCC1` (stereo not given), the activity change, negative = inhibition is -4.58% in test [1]; 4.8% in test [2]; -0.419% in test [3]; -4.71% in test [4]; -0.249% in test [5].

Take `Cc1ccc(C)c(N2CCN(C(=O)c3cc4n(n3)CC(C)(C(=O)NC3CCCC3)N(C)C4=O)CC2)c1` (stereo not given): the activity change, negative = inhibition turned out to be 7.64% in test [1]; 0.262% in test [2]; 4.4% in test [3]; 11.1% in test [4]; 7.01% in test [5].

With `O=C(c1ccc2c(=O)nc3c(-c4ccccc4)n[nH]n3c2c1)N1CCN(c2ccc(F)cc2)CC1`, the activity change, negative = inhibition in test [1] is -2.33%; in test [2] it was 0%; in test [3], 2.88%; in test [4] it was 6.02%; in test [5], 1.14%.

`Cc1ccnn1-c1ccc(C(=O)N2CCN(S(=O)(=O)c3ccc(Cl)c(C(F)(F)F)c3)CC2)cc1`: the activity change, negative = inhibition in test [1] was 2.69%; in test [2], -12.1%; in test [3], 0.25%; in test [4] it was -24.8%; in test [5], -11%.

As for `COc1cccc(-c2cccc(C(=O)N3CCN(C(C)=O)CC3)c2)c1`, the activity change, negative = inhibition is -3.04% in test [1]; 0.427% in test [2]; 1.54% in test [3]; -0.825% in test [4]; -14.7% in test [5].

As for `CC(C)CCn1c(=O)c2ccccc2n2c(=O)n(CC(=O)NCc3ccccc3Cl)nc12`, the activity change, negative = inhibition was -8.56% in test [1]; -2.75% in test [2]; -2.46% in test [3]; -15.2% in test [4]; -5.84% in test [5].

With `N#Cc1cc(-c2ccnc(Nc3ccc(N4CCOCC4)cc3)n2)ccc1OC1CCOCC1`, the activity change, negative = inhibition is -15.4% in test [1]; 0.862% in test [2]; -2.5% in test [3]; -16.1% in test [4]; -3.87% in test [5].

For `CC(C)(O)C1CCC(C)(C2CCC3(C)C4CCC5C(C)(C(=O)OC6OC(CO)C(O)C(O)C6O)C(O)CC(O)C56CC46CCC23C)O1` (stereo not given), the activity change, negative = inhibition in test [1] was 0.108%; in test [2] it was -8.29%; in test [3], 4.46%; in test [4] it was -18%; in test [5], -1.59%.

As to `CC(=O)N1C[C@@H](CN(C)C)[C@H](NC(=O)Cc2ccc(OC(F)(F)F)cc2)C1`, the activity change, negative = inhibition in test [1] is -6%; in test [2], -0.482%; in test [3], 0.693%; in test [4], -4.79%; in test [5] it was 3.14%.

Take `O=C(CCCc1ccccc1)Nc1ccnn1C1CCN(C(=O)CCc2cnccn2)CC1`: the activity change, negative = inhibition in test [1] was -4.18%; in test [2], -5.21%; in test [3], -0.988%; in test [4], -10.3%; in test [5], -4.59%.

In the case of `CCCn1c(=O)c2ccc(C(=O)NC3CCCC3)cc2n2c(SCC(=O)c3ccc(OC)cc3)nnc12`, the activity change, negative = inhibition in test [1] is 8.67%; in test [2], 0%; in test [3], 4.36%; in test [4] it was 3.16%; in test [5] it was 7.81%.

Take `CC(C)OCCCn1c(=O)c2ccccc2n2c(SCc3ccc(F)cc3)nnc12`: the activity change, negative = inhibition is -6.24% in test [1]; 6.35% in test [2]; 4% in test [3]; -8.03% in test [4]; -0.079% in test [5].

Regarding `Cc1cccc(NC(=O)c2ncn3c2C(=O)N(C2CC2)C(C)(C(=O)NC2CCCC2)C3)c1C` (stereo not given), the activity change, negative = inhibition was -5.96% in test [1]; 0% in test [2]; -0.972% in test [3]; -4.31% in test [4]; -4.81% in test [5].

Turning to `CN(C)CCCNC(=O)c1ccc(-c2cc(O)c3ncccc3c2)cc1`, the activity change, negative = inhibition in test [1] was -13.3% and -31.5%; in test [2], 4.87%; in test [3], 11.1% and -17.4%; in test [4], 0.812% and -7.28%; in test [5] it was 4.29% and -0.552%.

`CCOCCCN1C(=O)c2cc(-c3ccccc3)nn2CC1(C)C(=O)NCc1ccccc1OC` (stereo not given): the activity change, negative = inhibition in test [1] was found to be 7.21%; in test [2] it was 0.848%; in test [3] it was 10.6%; in test [4], 10%; in test [5], 5.59%.

In the case of `COc1cccc(OC)c1-c1ccc(C[C@H](NC(=O)c2c(Cl)cccc2Cl)C(=O)O)cc1`, the activity change, negative = inhibition in test [1] is 2.69%; in test [2], -1.26%; in test [3] it was 11.6%; in test [4], -8.06%; in test [5] it was 7.73%.

For `CCCn1c(=O)c2ccc(C(=O)NC3CCCCC3)cc2n2c(=O)n(Cc3ccc(F)cc3Cl)nc12`, the activity change, negative = inhibition in test [1] was -0.846%; in test [2] it was 1.02%; in test [3], -4.08%; in test [4], -5.42%; in test [5], 0.331%.

For the compound `COC(=O)c1ncn2c1C(=O)N(c1ccc(C)c(C)c1)C(C)(C(=O)NCc1ccccc1)C2` (stereo not given), the activity change, negative = inhibition is -9.41% in test [1]; 1.88% in test [2]; -6.93% in test [3]; 0.345% in test [4]; -1.22% in test [5].

Consider `CCC(C)NC(=O)c1ccc2c(=O)n(C)c3nn(CC(=O)Nc4ccccc4Cl)c(=O)n3c2c1` (stereo not given), for which the activity change, negative = inhibition stood at 1.16% in test [1]; 0.049% in test [2]; 1.69% in test [3]; 1.43% in test [4]; 1.79% in test [5].

`COc1ccc(CN2C(=O)c3cc4sccc4n3CC2(C)C(=O)NC2CCCCC2C)cc1` (stereo not given): the activity change, negative = inhibition in test [1] is -1.7%; in test [2] it was 6.92%; in test [3], -0.247%; in test [4], -2.93%; in test [5], -2.47%.
